Experimental data from PubChem BioAssay (NCATS).
The shares of active, inactive and inconclusive entries below differ from those in the screen. Potencies of inconclusive entries are left out as doubtful fits. Active and inactive are the calls of the source. Calls follow the shape of the dose curve; as a rule, active = well fitted inhibition curve with a large enough effect; inconclusive = small, poorly fitted or top-dose-only effect; inactive = no such curve, though single readings can be large or run the other way.

How the values were obtained:
[1] = target: Rap guanine nucleotide exchange factor 3 (Homo sapiens) (UniProt O95398); test: Confirmatory qHTS for antagonist of cAMP-regulated guanine nucleotide exchange factor 3 (EPAC1) (AID 1645880); conditions: EPAC1 Rap1B-BODIPY-GDP exchange, fluorescence; series mostly up to 115 µM; also: nearly all actives have a fitted effect of over 55% in size
UniProt O95398, sequence (O95398 whole entry, looked up): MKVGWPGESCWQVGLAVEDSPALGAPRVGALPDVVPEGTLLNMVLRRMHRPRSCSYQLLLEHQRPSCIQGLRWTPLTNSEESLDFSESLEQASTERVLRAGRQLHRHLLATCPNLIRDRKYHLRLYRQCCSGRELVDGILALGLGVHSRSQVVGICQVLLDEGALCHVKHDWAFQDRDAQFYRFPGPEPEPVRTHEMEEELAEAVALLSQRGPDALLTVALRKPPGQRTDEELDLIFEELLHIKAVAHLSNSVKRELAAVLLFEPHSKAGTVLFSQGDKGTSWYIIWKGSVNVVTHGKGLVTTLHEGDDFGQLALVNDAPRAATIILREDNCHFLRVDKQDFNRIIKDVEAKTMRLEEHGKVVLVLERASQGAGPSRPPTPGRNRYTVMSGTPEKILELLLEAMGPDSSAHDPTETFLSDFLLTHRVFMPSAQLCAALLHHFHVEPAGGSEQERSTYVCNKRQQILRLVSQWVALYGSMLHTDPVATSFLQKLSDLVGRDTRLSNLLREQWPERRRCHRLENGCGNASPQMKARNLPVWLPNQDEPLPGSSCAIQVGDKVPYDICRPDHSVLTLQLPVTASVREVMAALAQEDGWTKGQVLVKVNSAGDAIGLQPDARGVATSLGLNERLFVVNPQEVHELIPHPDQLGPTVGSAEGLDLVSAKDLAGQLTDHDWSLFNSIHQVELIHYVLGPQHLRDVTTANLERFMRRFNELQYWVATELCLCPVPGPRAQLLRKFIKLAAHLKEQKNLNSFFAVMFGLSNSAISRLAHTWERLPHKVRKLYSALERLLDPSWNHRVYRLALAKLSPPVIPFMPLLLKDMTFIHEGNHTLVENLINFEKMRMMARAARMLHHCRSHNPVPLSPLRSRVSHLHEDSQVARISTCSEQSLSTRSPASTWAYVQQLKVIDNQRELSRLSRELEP
How it was run: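 Released BODIPY-GDP fluoresces less than Rap1-bound BODIPY-GDP; the signal is followed at 480/540 nm at 5-min intervals over 30 min, after 5 min at room temperature. Reactions contain 100 nM EPAC1, 250 nM RAP1B-BODIPY-GDP and 50 uM GDP; results are normalized to ATA and DMSO.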

[2] = target: Rap guanine nucleotide exchange factor 4 (Homo sapiens) (UniProt Q8WZA2); test: Confirmatory qHTS for antagonist of cAMP-regulated guanine nucleotide exchange factor 4 (EPAC2) (AID 1645885); conditions: EPAC2 Rap1B-BODIPY-GDP exchange fluorescence, biochemical; series mostly up to 114 µM; also: nearly all actives have a fitted effect of over 25% in size
UniProt Q8WZA2, sequence (Q8WZA2 whole entry, looked up): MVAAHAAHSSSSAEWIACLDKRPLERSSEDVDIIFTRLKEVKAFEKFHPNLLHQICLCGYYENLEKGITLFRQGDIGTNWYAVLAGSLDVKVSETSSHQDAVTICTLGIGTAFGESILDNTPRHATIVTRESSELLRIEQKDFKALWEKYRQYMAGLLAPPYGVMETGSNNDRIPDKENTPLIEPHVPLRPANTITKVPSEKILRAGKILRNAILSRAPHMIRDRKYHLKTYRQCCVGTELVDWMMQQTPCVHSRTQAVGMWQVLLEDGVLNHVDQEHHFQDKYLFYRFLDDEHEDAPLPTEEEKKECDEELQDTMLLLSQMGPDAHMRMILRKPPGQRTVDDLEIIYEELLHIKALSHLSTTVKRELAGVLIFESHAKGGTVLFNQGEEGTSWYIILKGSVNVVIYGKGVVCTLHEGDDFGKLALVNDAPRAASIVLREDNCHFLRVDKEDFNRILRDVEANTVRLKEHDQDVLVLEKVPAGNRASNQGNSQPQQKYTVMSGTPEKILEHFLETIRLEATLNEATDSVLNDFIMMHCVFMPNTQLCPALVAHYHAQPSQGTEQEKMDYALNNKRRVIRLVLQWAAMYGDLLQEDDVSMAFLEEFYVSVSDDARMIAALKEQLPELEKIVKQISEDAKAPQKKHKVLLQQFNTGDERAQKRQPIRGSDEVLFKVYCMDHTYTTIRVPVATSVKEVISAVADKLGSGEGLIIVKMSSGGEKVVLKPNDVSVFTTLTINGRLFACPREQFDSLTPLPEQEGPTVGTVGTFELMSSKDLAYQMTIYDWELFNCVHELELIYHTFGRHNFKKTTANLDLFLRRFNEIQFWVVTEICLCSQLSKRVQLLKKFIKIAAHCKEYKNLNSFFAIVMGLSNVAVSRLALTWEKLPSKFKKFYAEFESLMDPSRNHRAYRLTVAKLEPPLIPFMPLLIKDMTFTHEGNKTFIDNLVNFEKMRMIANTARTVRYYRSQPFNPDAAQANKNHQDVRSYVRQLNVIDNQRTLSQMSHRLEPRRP
Potency is read from the fitted curve at half-maximal effect; tags tell the direction and shape of the fitted curve.

Which results are given for `C=CCNC(=O)c1oc2ccc(S(=O)(=O)N(CC)CC)cc2c1C`?
Potency [1]: inconclusive [inhibitor, partial curve, poor fit]; Potency [2]: inactive

For `CCc1nnc(NS(=O)(=O)c2ccc(NC(=S)NC(=O)c3ccc(Br)cc3)cc2)s1`, which Potency [1] is on record?
The Potency was active: 60.1 µM.

What about the Potency [2] of the same compound?
Its Potency is active: 75.7 µM.

What does the source list for `CC(C(=O)Nc1ccc(O)c(C(=O)O)c1)N1C(=O)/C(=C/c2cccs2)SC1=S` (centres undefined)?
Potency [1]: active: 37.9 µM; Potency [2]: inconclusive [inhibitor, partial curve, poor fit]

For `Cc1cc(Br)c2c(c1)[C@](O)(c1cn(C)c3ccccc13)C(=O)N2C`, which Potency [1] is on record?
The Potency was inconclusive [inhibitor, partial curve].

And the Potency [2]?
The Potency was inconclusive [inhibitor, single point].

For `COc1ccc(C(=O)c2ccccc2Cl)cc1OC`, which Potency [1] is on record?
The Potency was inconclusive [inhibitor, partial curve, poor fit].

What about the Potency [2] of the same compound?
The Potency was inconclusive [inhibitor, full curve].

`CCC(CO)Oc1cc(NCc2ccc(C(C)(C)C)cc2)c2ncn(C(C)C)c2c1` (centres undefined) was tested. Which Potency [1] did it give?
Its Potency is inconclusive [inhibitor, partial curve].

And the Potency [2]?
Its Potency is inconclusive [inhibitor, partial curve].

Which Potency [1] does the source give for `C=CCn1cc(C(=O)N2CCc3ccccc3C2)c(=O)c2cc(S(=O)(=O)N(CC)CC)ccc21` here?
The Potency was inconclusive [inhibitor, partial curve, poor fit].

What about the Potency [2] of the same compound?
Its Potency is “inactive”.

With `CC(NC(=O)COC(=O)C1CCN(c2ccc(C(F)(F)F)cn2)CC1)c1ccc(Br)cc1` (centres undefined) as the compound, how does the Potency [1] read?
The Potency was inconclusive [inhibitor, full curve, poor fit].

And the Potency [2]?
The Potency was inconclusive [inhibitor, partial curve, poor fit].

For `O=C(NC1CCCCC1)C(c1ccc(C(F)(F)F)cc1)n1c(=O)c(-c2ccco2)nc2ccccc21` (centres undefined), which Potency [1] is on record?
Its Potency is inconclusive [inhibitor, partial curve].

What about the Potency [2] of the same compound?
The Potency was inconclusive [inhibitor, single point].

What does the source list for `CCc1ccc(NC(=O)CSc2nc(-c3ccccc3)c(C#N)c(=O)[nH]2)cc1`?
Potency [1]: active: 75.7 µM; outcome [2]: inactive [at 12.7 µM]

`COc1ccc(C2N(c3ccc(Cl)cc3)N=C(C(C)=O)N(C)N2C(C)=O)cc1` (centres undefined) was tested. Which Potency [1] did it give?
Its Potency is “inactive”.

What about the Potency [2] of the same compound?
The Potency was inconclusive [inhibitor, full curve, poor fit].

What does the source list for `CCOC(=O)C1(c2ccccc2)SC(C(=O)OCC)(c2ccccc2)S1` (centres undefined)?
Potency [1]: inactive; Potency [2]: active: 53.6 µM

`Cc1ccc(C(=O)Nc2ccccc2[N+](=O)[O-])cc1S(=O)(=O)N1CCOCC1` was tested. Which Potency [1] did it give?
Its Potency is “inactive”.

And the Potency [2]?
Its Potency is “inactive”.

With `COc1ccc(CN2C(=O)c3cccnc3C2Nc2cc(Cl)c(OC)cc2OC)cc1` (centres undefined) as the compound, how does the Potency [1] read?
Its Potency is active: 75.7 µM.

And the Potency [2]?
The Potency was “inactive”.

Which results are given for `Cc1ncc(CO)c2c1Oc1nc(-c3ccccc3F)nc(SCC(=O)N(C)c3ccccc3)c1C2`?
Potency [1]: active: 30.1 µM; Potency [2]: inconclusive [inhibitor, full curve]

`CC1CC1C(=O)OCC(=O)NNC(=O)COc1ccc(Br)cc1` (centres undefined) was tested. Which Potency [1] did it give?
The Potency was “inactive”.

What about the Potency [2] of the same compound?
Its Potency is “inactive”.

`c1ccc(-c2onc(-c3ccco3)c2-c2ccc3[nH]ccc3c2)cc1` was tested. Which Potency [1] did it give?
Its Potency is inconclusive [inhibitor, partial curve, poor fit].

And the Potency [2]?
Its Potency is inconclusive [inhibitor, partial curve, poor fit].

What does the source list for `CN1C(=O)/C(=C2/C=Cc3ccccc3N2CCCS(=O)(=O)O)SC1=S`?
Potency [1]: inconclusive [inhibitor, partial curve]; Potency [2]: inconclusive [inhibitor, partial curve]

With `COc1cc(C(=O)c2ccccc2)c([N+](=O)[O-])cc1OC` as the compound, how does the Potency [1] read?
The Potency was “inactive”.

And the Potency [2]?
The Potency was inconclusive [inhibitor, single point].

How did the Potency [1] turn out when `O=S(=O)(c1ccc(Cl)cc1Br)N1CCCCC1` was run?
The Potency was “inactive”.

And the Potency [2]?
Its Potency is inconclusive [inhibitor, partial curve].

What does the source list for `c1ccc(-c2onc(-c3ccco3)c2-c2ccc3c(c2)OCO3)cc1`?
Potency [1]: inconclusive [inhibitor, partial curve, poor fit]; Potency [2]: inconclusive [inhibitor, partial curve]

Which results are given for `CCOc1ccc(-n2c(SCC(=O)Nc3ccccc3OC)nc3c(oc4ccccc43)c2=O)cc1`?
Potency [1]: inactive; Potency [2]: inactive
